According to the supplement of paper PMC6135742:
Structures can show the parent of a compound that is named as a salt. ± gives the standard deviation of the averaged measurements. The full ranking holds about 2,600 compounds; the median of “MBP+ mature oligodendrocyte number relative to DMSO vehicle control” is about -0.34, and the highest 2% start at about 13. This is one part of the list.

system: jimpy (Plp1 jimpy) mouse iPSC-derived oligodendrocyte progenitor cells; assay: MBP+ mature oligodendrocyte number relative to DMSO vehicle control (SDs above negative control mean); higher = more surviving jimpy oligodendrocytes (rescue); conditions: 10 µM; 3 days
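Further: 10 µM single dose with 3-day oligodendrocyte differentiation.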

| SMILES | MBP+ mature oligodendrocyte number |
| --- | --- |
| CCCSc1ccc2[nH]c(NC(=O)OC)nc2c1 [Albendazole] | 1.06 |
| COc1cc(F)c(C(C)C)cc1-c1ccc(C(F)(F)F)cc1CN1C(=O)O[C@H](c2cc(C(F)(F)F)cc(C(F)(F)F)c2)[C@@H]1C [Anacetrapib (MK-0859)] | 3.52 |
| CO[C@H]1/C=C/O[C@@]2(C)Oc3c(C)c(O)c4c(O)c(c(/C=N/N5CCN(C)CC5)c(O)c4c3C2=O)NC(=O)/C(C)=C\C=C\[C@H](C)[C@H](O)[C@@H](C)[C@@H](O)[C@@H](C)[C@H](OC(C)=O)[C@@H]1C [Rifampin] | -1.19 |
| CC(C)NCC(O)c1ccc(O)c(O)c1 (racemic) [(±)-Isoproterenol hydrochloride] | 0.225 |
| CC(C)NCC(O)c1ccc(O)c(O)c1 (racemic) [Isoprenaline HCl] | -0.276 |
| CC(C(=O)O)c1ccc(CC2CCCC2=O)cc1 (centres undefined) [loxoprofen] | 0.0686 |
| CC[C@H]1OC(=O)[C@H](C)[C@@H](O[C@H]2C[C@@](C)(OC)[C@@H](O)[C@H](C)O2)[C@H](C)[C@@H](O[C@@H]2O[C@H](C)C[C@H](N(C)C)[C@H]2O)[C@](C)(O)C[C@@H](C)C(=O)[C@H](C)[C@@H](O)[C@]1(C)O [Erythromycin] | 1.78 |
| CC1=C(/C=C/C(C)=C/C=C/C(C)=C/C=C/C=C(C)/C=C/C=C(C)/C=C/C2=C(C)CCCC2(C)C)C(C)(C)CCC1 [Beta Carotene] | -1.01 |
| NCCCCC(=O)O [5-Aminovaleric acid hydrochloride] | -1.14 |
| c1ccc(CC2=NCCN2)cc1 [Tolazoline HCl] | -0.523 |
| CC(C)(Oc1ccc(CCNC(=O)c2ccc(Cl)cc2)cc1)C(=O)O [Bezafibrate] | 0.633 ± 1.6 |
| OCCN1CCN(CCCN2c3ccccc3Sc3ccc(C(F)(F)F)cc32)CC1 [Fluphenazine dihydrochloride] | -4.41 |
| Clc1ccc2c(c1)C(N1CCNCC1)=Nc1ccccc1O2 [Amoxapine] | -3.06 |
| O=C(O)CCCc1c[nH]c2ccccc12 [3-Indolebutyric acid (IBA)] | 0.227 |
| O=C(c1cc(Cc2n[nH]c(=O)c3ccccc23)ccc1F)N1CCN(C(=O)C2CC2)CC1 | -2.07 |
| CC(C)[C@@H](C)/C=C/[C@@H](C)[C@H]1CC[C@H]2C3=CC=C4C[C@@H](O)CC[C@]4(C)[C@H]3CC[C@]12C [Ergosterol] | 0.619 |
| O=C1c2ccccc2C(=O)C1c1ccccc1 [Phenindione] | 0.253 |
| O=C(O)CCc1nc(-c2ccccc2)c(-c2ccccc2)o1 [Oxaprozin] | -0.0205 ± 1.1 |
| C=CC(N)CCC(=O)O (racemic) [(±)-gamma-Vinyl GABA] | 0.324 |
| OC[C@@H](O)[C@@H](O)[C@H](O)[C@H](O)CO [D-Mannitol] | 1.79 |
| CC(=O)OCC(=O)NCCCOc1cccc(CN2CCCCC2)c1 [Roxatidine Acetate HCl] | 0.793 |
| CCn1cc(C(=O)O)c(=O)c2cc(F)c(N3CCNCC3)nc21 [Enoxacin] | 0.793 |
| C[C@H](NCc1ccc(OCc2cccc(F)c2)cc1)C(N)=O [Safinamide Mesylate] | -2.16 |
| CC1(C)CCC=[N+]1[O-] [5,5-Dimethyl-1-pyrroline-N-oxide] | 0.136 |
| CC1(C)CCC(NC(=O)[C@@H](N)CCC(=O)O)CC1 | -0.323 |

| SMILES | MBP+ mature oligodendrocyte number |
| --- | --- |
| O=C(O)C1CCNCC1 [Isonipecotic acid] | -0.951 |
| OC[C@H]1OC(O)[C@H](O)[C@@H](O)[C@@H]1O (some centres undefined) [Dextrose] | 5.77 |
| CCCc1ncc(C[n+]2ccccc2C)c(N)n1 [Amprolium HCl] | 1.76 |
| O=C1NC(=O)/C(=C/c2ccc3nccc(-c4ccncc4)c3c2)S1 | -6.26 |
| Oc1ccc(C2CNCCc3c2cc(O)c(O)c3Cl)cc1 (centres undefined) [Fenoldopam bromide] | -0.648 |
| CC(C(=O)O)c1cccc(Oc2ccccc2)c1 (centres undefined) [Fenoprofen Calcium] | 2.68 |
| O=C(COc1cccc2c(=O)[nH]ccc12)c1ccccc1 | 2.01 |
| CNCCNS(=O)(=O)c1cccc2cnccc12 [H-8 dihydrochloride] | -1.23 |
| O=C(O)Cn1c(C(=O)Nc2nc(-c3ccccc3Cl)cs2)cc2ccccc21 | 0.189 |
| C[C@](N)(Cc1ccc(O)cc1)C(=O)O [L-alpha-Methyl-p-tyrosine] | -0.0882 |
| CC(C)NCC(O)COc1cccc2ccccc12 (racemic) [(±)-Propranolol hydrochloride] | 0.5 |
| CC(C)NCC(O)COc1cccc2ccccc12 (racemic) [Propranolol HCl] | 2.18 |
| CS(=O)(=O)c1ccc([C@@H](O)[C@@H](CF)NC(=O)C(Cl)Cl)cc1 [Florfenicol] | 6.57 |
| CCN(CC)CCCC(C)Nc1ccnc2cc(Cl)ccc12 (centres undefined) [Chloroquine diphosphate] | -2.08 |
| C[N+](C)(C)CCOP(=O)(O)OP(=O)([O-])OC[C@H]1O[C@@H](n2ccc(N)nc2=O)[C@H](O)[C@@H]1O [Cytidine 5'-diphosphocholine sodium salt hydrate] | -0.648 |
| CC(C)c1nc(N(C)S(C)(=O)=O)nc(-c2ccc(F)cc2)c1/C=C/[C@@H](O)C[C@@H](O)CC(=O)O [Rosuvastatin Calcium] | -1.17 |
| C=C(C)[C@@H]1CC[C@]2(C(=O)O)CC[C@]3(C)[C@H](CC[C@@H]4[C@@]5(C)CC[C@H](O)C(C)(C)[C@@H]5CC[C@]43C)[C@@H]12 [Betulinic acid] | 2.41 |
| CN=c1nc(-c2ccccc2)n(-c2ccccc2)s1 | 1.93 |
| O=C(O)C1=C[C@@H](O)[C@@H](O)[C@H](O)C1 [Shikimic Acid] | -1 |
| C1N2CN3CN1CN(C2)C3 [Methenamine] | 4.79 |
| CCCCCN(C)CCC(O)(P(=O)(O)O)P(=O)(O)O [Ibandronate sodium] | -0.675 |
| CNc1ncnc2c1ncn2[C@@H]1O[C@H](CO)[C@@H](O)[C@H]1O [N6-methyladenosine (m6A)] | 0.501 |
| CC(C)OC(=O)C(C(=O)OC(C)C)=C1SC=CS1 [Malotilate] | 19 |
| CC(C)(C)C(=O)OCOC(=O)[C@@H]1N2C(=O)[C@@H](/N=C/N3CCCCCC3)[C@H]2SC1(C)C [Pivmecillinam] | -0.997 |
